The values below come from the supplement of paper PMC8728848.

Holding throughout (assay): glycan array binding signal (z-score within array); higher = stronger binding
Holding throughout (conditions): glycan notation: IUPAC condensed, linker removed

The target in assay [1] is Gal(b1-4)GlcNAc(b1-2)Man(a1-6)[GlcNAc(b1-2)Man(a1-3)]Man(b1-4)GlcNAc(b1-4)GlcNAc. A digest of the protocol: (§1)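 The binding signal is a Z-score computed within each array. Data were drawn from 3228 arrays in the Consortium for Functional Glycomics database, restricted to those with a known protein sequence. Scores were averaged over arrays of the same protein sequence at different concentrations or buffers, and over linkers, and negative values can be taken as non-binding.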

The target in assay [2] is Gal(b1-4)GlcNAc(b1-2)Man(a1-6)[Man(a1-3)]Man(b1-4)GlcNAc(b1-4)GlcNAc. A digest of the protocol: as §1
Assay [3] deals with Gal(b1-4)GlcNAc(b1-2)[Gal(b1-4)GlcNAc(b1-4)]Man(a1-3)[Gal(b1-4)GlcNAc(b1-2)Man(a1-6)]Man(b1-4)GlcNAc(b1-4)GlcNAc. Summed up: as §1
Assay [4] concerns the target Gal(b1-4)GlcNAc(b1-2)[Gal(b1-4)GlcNAc(b1-4)]Man(a1-3)[Gal(b1-4)GlcNAc(b1-2)[Gal(b1-4)GlcNAc(b1-6)]Man(a1-6)]Man(b1-4)GlcNAc(b1-4)GlcNAc. A digest of the protocol:
as §1

The target of assay [5] is Gal(b1-4)GlcNAc(b1-2)[Gal(b1-4)GlcNAc(b1-4)]Man(a1-3)[GlcNAc(b1-4)][Gal(b1-4)GlcNAc(b1-2)Man(a1-6)]Man(b1-4)GlcNAc(b1-4)GlcNAc. Summed up: as §1
The target in assay [6] is Gal(b1-4)GlcNAc(b1-2)[Gal(b1-4)GlcNAc(b1-4)]Man(a1-3)[GlcNAc(b1-4)][Gal(b1-4)GlcNAc(b1-2)[Gal(b1-4)GlcNAc(b1-6)]Man(a1-6)]Man(b1-4)GlcNAc(b1-4)GlcNAc. Summed up:
as §1

Assay [7] concerns the target Gal(b1-4)GlcNAc(b1-2)[Gal(b1-4)GlcNAc(b1-6)]Man(a1-6)[Gal(b1-4)GlcNAc(b1-2)Man(a1-3)]Man(b1-4)GlcNAc(b1-4)GlcNAc. A digest of the protocol:
as §1

In assay [8] the target is Gal(b1-4)GlcNAc(b1-2)[Gal(b1-4)GlcNAc(b1-6)]Man(a1-6)[Gal(b1-4)GlcNAc(b1-2)Man(a1-3)]Man(b1-4)GlcNAc(b1-4)[Fuc(a1-6)]GlcNAc. Summed up: as §1
The target of assay [9] is Gal(b1-4)GlcNAc(b1-2)[Gal(b1-4)GlcNAc(b1-6)]Man(a1-6)[GlcNAc(b1-4)][Gal(b1-4)GlcNAc(b1-2)Man(a1-3)]Man(b1-4)GlcNAc(b1-4)GlcNAc. A digest of the protocol: as §1
The target in assay [10] is Gal(b1-4)GlcNAc(b1-2)[Gal(b1-4)GlcNAc(b1-6)]Man(a1-6)[GlcNAc(b1-4)][Gal(b1-4)GlcNAc(b1-2)[Gal(b1-4)GlcNAc(b1-4)]Man(a1-3)]Man(b1-4)GlcNAc(b1-4)[Fuc(a1-6)]GlcNAc. Summed up:
as §1

The target in assay [11] is Gal(b1-4)GlcNAc(b1-3)Gal(b1-3)GalNAc. A digest of the protocol:
as §1

Assay [12] addresses Gal(b1-4)GlcNAc(b1-3)Gal(b1-3)GlcNAc. Summed up:
as §1

Assay [13] concerns the target Gal(b1-4)GlcNAc(b1-3)Gal(b1-4)Glc. Summed up: as §1
Assay [14] deals with Gal(b1-4)GlcNAc(b1-3)Gal(b1-4)GlcNAc. Summed up: as §1
For assay [15], the target named is Gal(b1-4)GlcNAc(b1-3)Gal(b1-4)GlcNAc(b1-2)Man(a1-3)[Gal(b1-4)GlcNAc(b1-3)Gal(b1-4)GlcNAc(b1-2)Man(a1-6)]Man(b1-4)GlcNAc(b1-4)GlcNAc. A digest of the protocol:
as §1

The target of assay [16] is Gal(b1-4)GlcNAc(b1-3)Gal(b1-4)GlcNAc(b1-2)Man(a1-3)[Gal(b1-4)GlcNAc(b1-3)Gal(b1-4)GlcNAc(b1-2)Man(a1-6)]Man(b1-4)GlcNAc(b1-4)[Fuc(a1-6)]GlcNAc. A digest of the protocol: as §1
The target of assay [17] is Gal(b1-4)GlcNAc(b1-3)Gal(b1-4)GlcNAc(b1-2)[Gal(b1-4)GlcNAc(b1-3)Gal(b1-4)GlcNAc(b1-6)]Man(a1-6)[Gal(b1-4)GlcNAc(b1-3)Gal(b1-4)GlcNAc(b1-2)Man(a1-3)]Man(b1-4)GlcNAc(b1-4)GlcNAc. A digest of the protocol: as §1
For assay [18], the target named is Gal(b1-4)GlcNAc(b1-3)Gal(b1-4)GlcNAc(b1-2)[Gal(b1-4)GlcNAc(b1-3)Gal(b1-4)GlcNAc(b1-6)]Man(a1-6)[Gal(b1-4)GlcNAc(b1-3)Gal(b1-4)GlcNAc(b1-2)Man(a1-3)]Man(b1-4)GlcNAc(b1-4)[Fuc(a1-6)]GlcNAc. A digest of the protocol:
as §1

The other results are listed elsewhere or left out.

B1: SGC, Q9M345 (protein)
chain: QNLNFTYNGFHPPLTDISLQGLATVTPNGLLKLTNTSVQKTGHAFCTERIRFKDSQNGNVSSFSTTFVFAIHSQIPTLSGHGIAFVVAPTLGLPFALPSQYIGLFNISNNGNDTNHIFAVEFDTIQSSEFGDPNDNHVGIDLNGLRSANYSTAGYRDDHDKFQNLSLISRKRIQVWIDYDNRSHRIDVTVAPFDSDKPRKPLVSYVRDLSSILLEDMYVGFSSATGSVLSEHFLVGWSFRLNGEAPMLSLSKLPKLPRFEPRRIS
Take B1: the “glycan array binding signal (z-score)” value is 0.124 in assay [1]; 1.5 in assay [2]; -0.278 in assay [3]; -0.335 in assay [4]; -0.227 in assay [5]; 2.19 in assay [6]. Further, the “glycan array binding signal (z-score)” value in assay [7] was 0.471; in assay [8], -0.192; in assay [9] it was -0.282; in assay [10], -0.386; in assay [11] it was -0.3; in assay [12], -0.295. Also, the “glycan array binding signal (z-score)” value in assay [13] is -0.237; in assay [14] it was -0.296; in [15], 1.68; in assay [16], 4.81; in [17], 2.24; in assay [18], 0.334.
